Source: article PMC4336329 (PLoS ONE, 2015)
In all, about 310,000 compounds went through this assay and about 2,200 (0.71%) showed an effect of 50% or more. Effects have a minus sign here. This is one part of the list.

biological target: human ether-à-go-go-related gene (hERG) potassium channel (human, UniProt Q12809); test: primary screen, population patch clamp on CHO cells stably expressing hERG
Sequence (Q12809 whole entry, looked up): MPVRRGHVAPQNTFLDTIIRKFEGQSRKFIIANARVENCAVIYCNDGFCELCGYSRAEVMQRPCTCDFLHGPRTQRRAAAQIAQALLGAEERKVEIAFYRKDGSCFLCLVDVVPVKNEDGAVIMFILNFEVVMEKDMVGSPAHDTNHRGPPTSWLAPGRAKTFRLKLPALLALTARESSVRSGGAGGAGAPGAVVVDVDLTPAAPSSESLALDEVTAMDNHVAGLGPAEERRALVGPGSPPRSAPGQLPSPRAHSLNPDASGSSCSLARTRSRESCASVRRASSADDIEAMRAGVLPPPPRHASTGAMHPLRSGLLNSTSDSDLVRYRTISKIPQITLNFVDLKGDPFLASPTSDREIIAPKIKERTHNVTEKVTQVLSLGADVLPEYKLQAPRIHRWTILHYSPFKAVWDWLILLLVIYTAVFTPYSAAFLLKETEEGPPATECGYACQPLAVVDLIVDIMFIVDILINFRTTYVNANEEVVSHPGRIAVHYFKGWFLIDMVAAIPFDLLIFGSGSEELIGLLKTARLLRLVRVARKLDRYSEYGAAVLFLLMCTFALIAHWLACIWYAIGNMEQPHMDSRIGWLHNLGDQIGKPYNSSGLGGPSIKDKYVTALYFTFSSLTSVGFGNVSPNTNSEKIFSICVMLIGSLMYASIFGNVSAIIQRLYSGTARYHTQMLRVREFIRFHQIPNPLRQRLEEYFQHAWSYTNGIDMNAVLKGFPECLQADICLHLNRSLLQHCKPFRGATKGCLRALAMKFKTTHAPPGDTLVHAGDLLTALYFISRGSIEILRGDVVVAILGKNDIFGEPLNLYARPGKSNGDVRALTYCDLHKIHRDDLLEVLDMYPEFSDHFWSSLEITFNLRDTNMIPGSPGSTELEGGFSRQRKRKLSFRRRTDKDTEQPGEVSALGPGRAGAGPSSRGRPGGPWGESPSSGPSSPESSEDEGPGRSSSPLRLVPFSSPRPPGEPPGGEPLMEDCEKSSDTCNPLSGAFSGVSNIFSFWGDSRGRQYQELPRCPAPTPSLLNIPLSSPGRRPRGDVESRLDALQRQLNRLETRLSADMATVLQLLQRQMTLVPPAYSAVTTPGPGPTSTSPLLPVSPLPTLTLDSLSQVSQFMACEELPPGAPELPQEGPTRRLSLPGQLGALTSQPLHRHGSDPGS

Compared with `COC(=O)C1=C(c2cccc(OCc3ccccc3)c2)C[C@@H]2CC[C@H]1N2C(=O)NCc1ccc2[nH]ccc2c1`, `COc1ccc(N2C(=O)C3CCCN3C2c2ccccc2)cc1` (centres unmarked) is lower in “hERG current change (%, negative = inhibition) at 1uM” value: 10.9% for the first, 6.98% for the second.

Compared with `Cc1cccc(N(Cc2ccccc2)C(=O)CSC(C)C(=O)Nc2cc(C)on2)c1` (centres unmarked), `CC(Sc1nc2ccccc2s1)C(=O)N(C)Cc1ccccc1` (centres unmarked) is lower in “hERG current change (%, negative = inhibition) at 1uM” value: 15.7% for the first, 8.28% for the second.

First: CCO.C[C@H]1c2cccc(O)c2C(O)=C2C(=O)[C@]3(O)C(O)=C(C(N)=O)C(=O)[C@@H](N(C)C)C3[C@@H](O)C21.Cl.O (some centres unmarked)
Second: CCOC(=O)C1=C(COC(=O)C(C)(C)Oc2ccc(Cl)cc2)NC(=O)NC1C (centres unmarked)
The “hERG current change (%, negative = inhibition) at 1uM” value of the first is higher: 13.3% for the first, 5.59% for the second.

First: CCNC(=S)NNC(=O)C1CCCCC1
Second: CCn1c(=O)c2cc(S(=O)(=O)NC3CCCCC3)ccc2n(CC)c1=O
The “hERG current change (%, negative = inhibition) at 1uM” value of the first is higher: 5.71% for the first, 0.676% for the second.

First: CCCCNC(=O)CSc1nc2ccsc2c(=O)n1C1CCN(C(=O)OCC)CC1
Second: CCc1c(O)nc(SCC(=O)Nc2ccccc2OC)[nH]c1=O
The “hERG current change (%, negative = inhibition) at 1uM” value of the first is lower: -15.3% for the first, 8.07% for the second.

Going from `Cc1ccc(NC(=O)Cn2c(O)c(N=NS(=O)(=O)c3ccc(C)cc3)c3ccccc32)cc1` to `CC(NC(=O)c1ccc(CS(C)(=O)=O)cc1)c1cccc2ccccc12` (centres unmarked), the “hERG current change (%, negative = inhibition) at 1uM” value falls from 9.8% to 6.06%.

Compared with `CCOC(=O)c1nnc2cc(C)nn2c1C`, `CCOc1ccc2[nH]c3nc(SCC(=O)OC(C)C)nnc3c2c1` is higher in “hERG current change (%, negative = inhibition) at 1uM” value: 9.6% for the first, 14.6% for the second.

Going from `O=c1oc2c(CN3CCOCC3)c(O)ccc2c2ccccc12` to `O=C(C(Sc1ccccc1)c1ccc(Br)cc1)N1CCOCC1` (centres unmarked), the “hERG current change (%, negative = inhibition) at 1uM” value rises from 1.67% to 4.97%.

Going from `Cc1ccc(NC(=O)CCC(=O)N/N=C/c2ccc(O)cc2O)cc1` to `COc1ccccc1/C=N/NC(=O)CSc1ccc2ccccc2n1`, the “hERG current change (%, negative = inhibition) at 1uM” value rises from 15.7% to 16.6%.

Compared with `C/C(=N\N(c1ccccc1)c1ccccc1)c1ccc(N)cc1`, `CCN(c1ccccc1)S(=O)(=O)c1ccc(Cl)c(NC(=O)Nc2ccc(Cl)cc2C#N)c1` is lower in “hERG current change (%, negative = inhibition) at 1uM” value: 12.3% for the first, 4.6% for the second.

Going from `COc1ccccc1N1CCN(c2ccc3cc(S(=O)(=O)N4CCCCC4)ccc3n2)CC1` to `COc1cc(S(=O)(=O)N2CCN(c3ccccc3)CC2)ccc1F`, the “hERG current change (%, negative = inhibition) at 1uM” value falls from 11.9% to 8.18%.

First: Cc1ccc(NC(=O)c2nc[nH]c2C(=O)N[C@@H](C)c2ccccc2)cc1
Second: CCOC(=O)/C=C/C(=O)Nc1ccc(Oc2ccccc2)cc1
The “hERG current change (%, negative = inhibition) at 1uM” value of the first is higher: 19.6% for the first, 10.2% for the second.

First: O=C(c1ccc(CNS(=O)(=O)c2ccc(Br)cc2)cc1)N1CCC2(CC1)OCCO2
Second: Cc1ccc(S(=O)(=O)N2CCC(C(=O)Nc3ccccc3N3CCCC3)CC2)cc1C
The “hERG current change (%, negative = inhibition) at 1uM” value of the first is lower: 2.65% for the first, 13.1% for the second.

First: O=C(CN1C(=O)CSc2ccccc21)NCCC1=CCCCC1
Second: O=c1[nH]c(N2CCN(c3ccccc3)CC2)nc2c1CCC2
The “hERG current change (%, negative = inhibition) at 1uM” value of the first is lower: 0.351% for the first, 5.93% for the second.

Compared with `O=C(CSc1nncn1-c1ccccn1)Nc1cccc(Cl)c1`, `CC(C)OC(=O)CSc1nnc(-c2ccccn2)n1N` is higher in “hERG current change (%, negative = inhibition) at 1uM” value: -2.19% for the first, 14.9% for the second.

Compared with `COc1ccc(NC(=O)CCN2C(=O)c3ccncc3C2=O)cc1OC`, `O=C(CCCCCCN1C(=O)c2ccccc2C1=O)N1CCC(c2ccccc2)C1` (centres unmarked) is lower in “hERG current change (%, negative = inhibition) at 1uM” value: 1.46% for the first, -0.85% for the second.

First: COc1cc(CSC)nc(-c2ccccc2)n1
Second: COc1ccc2c(=O)c3ccccc3oc2c1
The “hERG current change (%, negative = inhibition) at 1uM” value of the first is higher: 12.2% for the first, 5.86% for the second.

First: CC(C)(C)c1cc(Cl)c(O)c(NC(=S)NC(=O)c2cccnc2)c1
Second: CC(C)[C@H](NC(=O)c1cc2cc(Cl)ccc2n1C)C(=O)N[C@@H](C(=O)O)c1ccccc1
The “hERG current change (%, negative = inhibition) at 1uM” value of the first is lower: 4.44% for the first, 9.95% for the second.

Going from `Cc1nc2scc(-c3ccc(C(C)(C)C)cc3)c2c(=O)n1N` to `CCOC(=O)C1=CCC2c3c(c4ccccc4n3C)C(=O)C1N2C(=O)OC(C)(C)C` (centres unmarked), the “hERG current change (%, negative = inhibition) at 1uM” value rises from 7.51% to 15.9%.

Compared with `CC1(C)OC(=O)N(c2cccnc2)C1(C)O` (centres unmarked), `O=C(NCc1ccccn1)c1ccco1` is lower in “hERG current change (%, negative = inhibition) at 1uM” value: 15.8% for the first, 8.85% for the second.

Compared with `Cc1c(C(=O)N2CCCCC2C)sc2ncnc(N3CCc4ccccc4C3)c12` (centres unmarked), `N#Cc1nc(-c2ccccc2)oc1N1CCN(C(=O)c2ccco2)CC1` is lower in “hERG current change (%, negative = inhibition) at 1uM” value: 3.53% for the first, -34.7% for the second.

Compared with `O=C(NC1CC1)C1CCN(C2CCN(C(=O)c3ccc(C(F)(F)F)cc3)CC2)CC1`, `O=C(CNC(=O)c1ccc(Cl)cc1)Nc1ccccc1C(F)(F)F` is higher in “hERG current change (%, negative = inhibition) at 1uM” value: 0.78% for the first, 9.72% for the second.

First: COc1ccc(-c2noc(N3CCCC(C(=O)Nc4cc(F)ccc4F)C3)n2)cc1 (centres unmarked)
Second: COc1ccc(Cc2nnc(NC(=O)c3cccc([N+](=O)[O-])c3C)s2)cc1
The “hERG current change (%, negative = inhibition) at 1uM” value of the first is higher: 5.89% for the first, -3.91% for the second.

First: COc1ccccc1C1=NOC(Cn2c(NCC3CCCO3)nc3c2c(=O)n(C)c(=O)n3C)C1 (centres unmarked)
Second: CCn1c(=O)c2c(nc3n2CCCN3CCc2ccccc2)n(C)c1=O
The “hERG current change (%, negative = inhibition) at 1uM” value of the first is higher: 10.9% for the first, 4.37% for the second.

Compared with `O=C(Nc1ccccc1-c1nnn(CC(=O)N2CCCc3ccccc32)n1)c1ccco1`, `Cc1c(NC(=O)C(C)N2C(=O)c3ccccc3C2=O)c(=O)n(-c2ccccc2)n1C` (centres unmarked) is higher in “hERG current change (%, negative = inhibition) at 1uM” value: -2.43% for the first, 12.5% for the second.

First: S=c1[nH]cc(-c2ccc(Cl)cc2)n1-c1ccccc1
Second: O=S(=O)(CCc1nc2ccccc2s1)c1ccc(Cl)cc1
The “hERG current change (%, negative = inhibition) at 1uM” value of the first is lower: 0.551% for the first, 2.13% for the second.

First: NNS(=O)(=O)c1ccc(N2CCCC2=O)c([N+](=O)[O-])c1
Second: O=C(O)c1cc(Cl)ccc1NC(=O)C1CCCO1 (centres unmarked)
The “hERG current change (%, negative = inhibition) at 1uM” value of the first is higher: 14.9% for the first, 11% for the second.

First: CCCCOc1ccc(CN2CCN(CCO)CC2)cc1
Second: CCn1c(P(C)(=O)[O-])nc2cc(NC(=O)c3ccccc3F)ccc21.[K+]
The “hERG current change (%, negative = inhibition) at 1uM” value of the first is lower: 7.93% for the first, 20.6% for the second.
